This assay deals with Genome polyprotein (dengue virus type 2) (UniProt P29990).
[1] abbreviates: Thailand/16681/1984, Concentration 25.0 uM, Number of replicates 1.0.

The structures appear in SMILES notation. The whole screen tested about 2,000 compounds, of which about 110 (5.5%) showed an effect of 50% or more. The list shows a part of the results.

The inhibition is the relative decrease from the control value, in per cent.

`Cc1cc(NC(=O)C2CCN(c3ccc(C=O)cc3)CC2)cc(C)c1Br`: the inhibition under setting [1] was found to be 5.87%. The same measure, in the same setting: the figure for `N#Cc1cc(Cl)c(NC(=O)C2CCN(c3ccc(C=O)cc3)CC2)c(Cl)c1` is 13.8%. For `Cc1cc(CO)c2cccc(Cc3ccccc3C(=O)N[C@H]3C[C@@H](O)C3)c2n1`, the inhibition (Thailand/16681/1984, Concentration 49.95 uM, Number of replicates 2.0, Standard deviation 0.23931115454400867 %) worked out at 4.51% and the inhibition (Thailand/16681/1984, Concentration 99.9 uM, Number of replicates 2.0, Standard deviation 0.6482239248941596 %) came to 13.2%. In the case of `O=C(O)c1ccc(C2CCN(Cc3c[nH]c4ccccc34)CC2)cc1`, the inhibition reads like this: (Thailand/16681/1984, Concentration 49.5 uM, Number of replicates 2.0, Standard deviation 1.7343724876046411 %) -5.12%; (Thailand/16681/1984, Concentration 99.01 uM, Number of replicates 2.0, Standard deviation 1.3827672929369348 %) -3.46%; (Thailand/16681/1984, Concentration 198.0 uM, Number of replicates 2.0, Standard deviation 2.1920985156415025 %) -1.05%. With `O=C(c1cc(Cl)ccc1NS(=O)(=O)c1ccc(Oc2ccccc2Cl)cc1)N1CC[C@H](CO)C1`, the inhibition reads like this: (Thailand/16681/1984, Concentration 49.5 uM, Number of replicates 2.0, Standard deviation 1.1631525408138252 %) 2.87%; (Thailand/16681/1984, Concentration 99.01 uM, Number of replicates 2.0, Standard deviation 1.2459174873464263 %) 43.6%; (Thailand/16681/1984, Concentration 198.0 uM, Number of replicates 2.0, Standard deviation 0.07742612093802895 %) 97.8%.

Consider `CNC(=O)Cc1cn(S(=O)(=O)c2ccc(Oc3ccccc3Cl)cc2)c2ccc(Cl)cc12`, for which the inhibition came to 1.74% (Thailand/16681/1984, Concentration 49.5 uM, Number of replicates 2.0, Standard deviation 0.8029092652501143 %); 5.7% (Thailand/16681/1984, Concentration 99.01 uM, Number of replicates 2.0, Standard deviation 0.8699473681419663 %); 11.9% (Thailand/16681/1984, Concentration 198.0 uM, Number of replicates 2.0, Standard deviation 0.7327772465027748 %). With `Cc1cc(CO)c2cccc(NC(=O)Cc3c(C)c4c(=O)[nH]n(C)c4[nH]c3=O)c2n1`, the inhibition was determined as 17.7% (Thailand/16681/1984, Concentration 49.95 uM, Number of replicates 2.0, Standard deviation 1.6565788461475972 %) and 32.2% (Thailand/16681/1984, Concentration 99.9 uM, Number of replicates 2.0, Standard deviation 1.9416844060600267 %). As for `O=Cc1ccc(N2CCC(C(=O)N(Cc3c(F)cccc3Cl)C3CC3)CC2)cc1`, the inhibition under setting [1] worked out at 14.1%. Take `CNC(=O)[C@H]1CCCN(S(=O)(=O)c2ccc(Oc3ccccc3Cl)cc2)C1`: the inhibition is, setting by setting: (Thailand/16681/1984, Concentration 49.5 uM, Number of replicates 2.0, Standard deviation 1.3425926640552597 %) -1.55%; (Thailand/16681/1984, Concentration 99.01 uM, Number of replicates 2.0, Standard deviation 1.1232771440198652 %) 0.94%; (Thailand/16681/1984, Concentration 198.0 uM, Number of replicates 2.0, Standard deviation 1.8999403128335026 %) 2.72%. As for `COc1cc(CNC(=O)C2CCN(c3ccc(C=O)cc3)CC2)cc(OC)c1OC`, under setting [1], the inhibition is 17.1%. Consider `c1cc(CN2CCC(c3c[nH]c4ncccc34)CC2)c2[nH]ccc2c1`, for which the inhibition was 4.96% (Thailand/16681/1984, Concentration 49.5 uM, Number of replicates 2.0, Standard deviation 0.026124302580992558 %); 6.59% (Thailand/16681/1984, Concentration 99.01 uM, Number of replicates 2.0, Standard deviation 0.5067052600130082 %); 6.98% (Thailand/16681/1984, Concentration 198.0 uM, Number of replicates 2.0, Standard deviation 0.02340296486634115 %). Turning to `CSCC[C@H](NC(=O)OC(C)(C)C)C(=O)N1CCC[C@H]1C(=O)Nc1ccc(CN)cc1`, the inhibition amounted to 0.345% (Thailand/16681/1984, Concentration 49.5 uM, Number of replicates 2.0, Standard deviation 0.5873455681071067 %); 1.56% (Thailand/16681/1984, Concentration 99.01 uM, Number of replicates 2.0, Standard deviation 0.9875045381203101 %); 2.5% (Thailand/16681/1984, Concentration 198.0 uM, Number of replicates 2.0, Standard deviation 0.49996007837732465 %). As to `O=Cc1ccc(N2CCC(C(=O)N3CCN(CC(=O)N4CCOCC4)CC3)CC2)cc1`, the inhibition under setting [1] is 10.1%. Same read-out and setting: the figure for `O=Cc1ccc(N2CCC(C(=O)Nc3cc(Cl)ccc3Br)CC2)cc1` is 13.8%.

With `O=Cc1ccc(N2CCC(C(=O)N(CCCO)Cc3ccncc3)CC2)cc1`, the inhibition under setting [1] is 15.4%.

As to `O=Cc1ccc(N2CCC(C(=O)Nc3cc(Cl)cnc3Br)CC2)cc1`, the inhibition under setting [1] worked out at 13.6%. The same measure, in the same setting: the figure for `CC(C)NC(=O)CN1CCN(C(=O)C2CCN(c3ccc(C=O)cc3)CC2)CC1` is 11.2%. As for `CC[C@H]1CCN(C(=O)c2cc(Cl)ccc2NS(=O)(=O)c2ccc(Oc3ccccc3Cl)cc2)C1`, the inhibition came to 46.7% (Thailand/16681/1984, Concentration 49.5 uM, Number of replicates 2.0, Standard deviation 0.47789805764320614 %); 61.8% (Thailand/16681/1984, Concentration 99.01 uM, Number of replicates 2.0, Standard deviation 0.11836183761011393 %); 73.4% (Thailand/16681/1984, Concentration 198.0 uM, Number of replicates 2.0, Standard deviation 0.034704726588234404 %). Take `O=Cc1ccc(N2CCC(C(=O)Nc3cccnc3Br)CC2)cc1`: the inhibition under setting [1] came out at 14.7%. The same measure, in the same setting: in the case of `C#CCN(Cc1ccccc1Cl)C(=O)C1CCN(c2ccc(C=O)cc2)CC1` it was 14.7%. On to `CNC(=O)c1cccc(CNc2cc(Cl)cc(C(=O)NC(C)(C)CO)c2)c1`, for which the inhibition was -7.67% (Thailand/16681/1984, Concentration 49.5 uM, Number of replicates 2.0, Standard deviation 0.035088768671865674 %); -9.84% (Thailand/16681/1984, Concentration 99.01 uM, Number of replicates 2.0, Standard deviation 1.5850296817659273 %); 5.8% (Thailand/16681/1984, Concentration 198.0 uM, Number of replicates 2.0, Standard deviation 29.186943451836452 %). `Cc1cc(CO)c2cccc(NC(=O)CCN)c2n1`: the inhibition reads like this: (Thailand/16681/1984, Concentration 49.95 uM, Number of replicates 2.0, Standard deviation 0.675365146636023 %) 28.7%; (Thailand/16681/1984, Concentration 99.9 uM, Number of replicates 2.0, Standard deviation 0.4014376052982588 %) 91.2%. Consider `CN(CCc1ccc([N+](=O)[O-])cc1)C(=O)C1CCN(c2ccc(C=O)cc2)CC1`, for which the inhibition under setting [1] worked out at 14.6%. As for `COc1ccc(S(=O)(=O)Nc2ccc(C(=O)Nc3nccs3)cc2)cc1`, the inhibition was 3.03% (Thailand/16681/1984, Concentration 49.5 uM, Number of replicates 2.0, Standard deviation 1.1679675653751038 %); 0.212% (Thailand/16681/1984, Concentration 99.01 uM, Number of replicates 2.0, Standard deviation 0.18833150669698956 %); -0.267% (Thailand/16681/1984, Concentration 198.0 uM, Number of replicates 2.0, Standard deviation 1.0680790075686786 %).

Values taken from ChEMBL document CHEMBL5606460, “ASAP - DENV-2 NS2B-NS3 protease fluorescence single point” (2024).
